By IC50 is meant the dose at which the fit gives 50% viability; where the fit passes the top or lowest dose, that dose stands as a limit. For AUC the same curve is integrated over the 256-fold range of doses and scaled to a fraction: 1 means no effect, lower means more sensitive.
Compound: N#CC[C@H](C1CCCC1)n1cc(-c2ncnc3[nH]ccc23)cn1 [Ruxolitinib]
Assay: Viability of human cancer cell lines after 72 h of drug (GDSC screen)
Procedure: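 Human cancer cell lines in 384-well plates, medium with 10% serum, drug for 72 h over a 256-fold dose range (nine 2-fold or five 4-fold steps up to the top dose). Adherent lines were fixed and stained with the nucleic acid dye Syto60, suspension lines read with resazurin; signal relative to control wells, capped at 0 and 100%. One two-parameter sigmoid per drug and line, fitted in a mixed model over all curves with the slope shared within a line.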

Row | Cell Line | AUC | IC50 [µM]
1 | EW-24 (Ewing sarcoma, semi-adherent, top dose 5.24 µM) | 0.992 | > 5.24
2 | TGBC11TKB (stomach, adherent, top dose 5.24 µM) | 0.992 | > 5.24
3 | CAS-1 (glioma, adherent, top dose 5.24 µM) | 0.974 | > 5.24
4 | HOP-92 (large cell lung carcinoma, adherent, top dose 5.24 µM) | 0.978 | > 5.24
5 | MHH-NB-11 (neuroblastoma, adherent, top dose 5.24 µM) | 0.976 | > 5.24
6 | RS4-11 (leukaemia, suspension, top dose 5.24 µM) | 0.988 | > 5.24
7 | EJM (lymphoid neoplasm, semi-adherent, top dose 5.24 µM) | 0.906 | 5.15
8 | EMC-BAC-1 (lung adenocarcinoma, adherent, top dose 5.24 µM) | 0.956 | > 5.24
9 | HCC1937 (breast, adherent, top dose 5.24 µM) | 0.985 | > 5.24
10 | OVCAR-3 (ovary, adherent, top dose 5.24 µM) | 0.983 | > 5.24
11 | KALS-1 (glioma, adherent, top dose 5.24 µM) | 0.962 | > 5.24
12 | H2595 (mesothelioma, adherent, top dose 5.24 µM) | 0.978 | > 5.24
13 | SW954 (urogenital system, adherent, top dose 5.24 µM) | 0.985 | > 5.24
14 | NK-92MI (lymphoid neoplasm, suspension, top dose 5.24 µM) | 0.159 | 0.0327
15 | KYM-1 (rhabdomyosarcoma, adherent, top dose 5.24 µM) | 0.988 | > 5.24
16 | BPH-1 (prostate, adherent, top dose 5.24 µM) | 0.982 | > 5.24
17 | NCI-SNU-16 (stomach, suspension, top dose 5.24 µM) | 0.991 | > 5.24
18 | SF126 (glioma, adherent, top dose 5.24 µM) | 0.986 | > 5.24
19 | JURL-MK1 (chronic myeloid leukaemia, suspension, top dose 5.24 µM) | 0.976 | > 5.24
20 | MOLT-4 (lymphoblastic leukaemia, suspension, top dose 5.24 µM) | 0.969 | > 5.24

Row | Cell Line | AUC | IC50 [µM]
21 | EW-11 (Ewing sarcoma, adherent, top dose 5.24 µM) | 0.98 | > 5.24
22 | SW1116 (large intestine, adherent, top dose 5.24 µM) | 0.983 | > 5.24
23 | MEG-01 (chronic myeloid leukaemia, suspension, top dose 5.24 µM) | 0.975 | > 5.24
24 | NCI-H2023 (lung adenocarcinoma, adherent, top dose 5.24 µM) | 0.982 | > 5.24
25 | CCF-STTG1 (glioma, adherent, top dose 5.24 µM) | 0.986 | > 5.24
26 | HCC1500 (breast, adherent, top dose 1.024 µM) | 0.967 | > 1.02
27 | OVCA433 (ovary, adherent, top dose 5.24 µM) | 0.984 | > 5.24
28 | MG-63 (osteosarcoma, adherent, top dose 5.24 µM) | 0.983 | > 5.24
29 | BICR10 (head and neck, adherent, top dose 5.24 µM) | 0.985 | > 5.24
30 | RC-K8 (B-cell lymphoma, suspension, top dose 5.24 µM) | 0.993 | > 5.24
31 | ST486 (Burkitt lymphoma, suspension, top dose 5.24 µM) | 0.985 | > 5.24
32 | HCC-827 (lung adenocarcinoma, adherent, top dose 5.24 µM) | 0.976 | > 5.24
33 | PANC-10-05 (pancreas, adherent, top dose 5.24 µM) | 0.981 | > 5.24
34 | NB69 (neuroblastoma, adherent, top dose 5.24 µM) | 0.98 | > 5.24
35 | OVTOKO (ovary, adherent, top dose 5.24 µM) | 0.951 | > 5.24
36 | JHH-7 (liver, adherent, top dose 5.24 µM) | 0.988 | > 5.24
37 | NCI-H2228 (lung adenocarcinoma, adherent, top dose 5.24 µM) | 0.917 | > 5.24
38 | MDA-MB-330 (breast, adherent, top dose 5.24 µM) | 0.984 | > 5.24
39 | H2373 (mesothelioma, adherent, top dose 5.24 µM) | 0.98 | > 5.24
40 | PCI-15A (head and neck, adherent, top dose 5.24 µM) | 0.985 | > 5.24

Row | Cell Line | AUC | IC50 [µM]
41 | OVCAR-4 (ovary, adherent, top dose 5.24 µM) | 0.964 | > 5.24
42 | JHU-022 (head and neck, adherent, top dose 5.24 µM) | 0.98 | > 5.24
43 | CAL-85-1 (breast, adherent, top dose 5.24 µM) | 0.979 | > 5.24
44 | Caov-3 (ovary, adherent, top dose 5.24 µM) | 0.989 | > 5.24
45 | SK-LMS-1 (soft tissue, adherent, top dose 5.24 µM) | 0.987 | > 5.24
46 | TYK-nu (ovary, adherent, top dose 5.24 µM) | 0.984 | > 5.24
47 | DND-41 (T-cell leukaemia, suspension, top dose 5.24 µM) | 0.433 | 0.22
48 | RKO (large intestine, adherent, top dose 5.24 µM) | 0.988 | > 5.24
49 | HCC1187 (breast, suspension, top dose 5.24 µM) | 0.989 | > 5.24
50 | LU-99A (large cell lung carcinoma, adherent, top dose 5.24 µM) | 0.985 | > 5.24
51 | CAL-12T (non-small cell lung carcinoma, adherent, top dose 5.24 µM) | 0.95 | > 5.24
52 | H2369 (mesothelioma, adherent, top dose 5.24 µM) | 0.987 | > 5.24
53 | NCI-H810 (large cell lung carcinoma, adherent, top dose 5.24 µM) | 0.988 | > 5.24
54 | TT2609-C02 (thyroid, adherent, top dose 5.24 µM) | 0.984 | > 5.24
55 | CTB-1 (B-cell lymphoma, suspension, top dose 5.24 µM) | 0.962 | > 5.24
56 | KU-19-19 (bladder, adherent, top dose 5.24 µM) | 0.986 | > 5.24
57 | SNU-175 (large intestine, suspension, top dose 5.24 µM) | 0.987 | > 5.24
58 | NCI-H2196 (small cell lung carcinoma, adherent, top dose 5.24 µM) | 0.959 | > 5.24
59 | P32-ISH (Burkitt lymphoma, suspension, top dose 5.24 µM) | 0.99 | > 5.24
